{
  "source": "PubChem BioAssay AID662",
  "about": "(National Center for Advancing Translational Sciences (NCATS), 2007)",
  "note": "The campaign covered roughly 71,000 compounds. About 1,800 (2.5%) were called active. Inconclusive results, whose numbers are uncertain, are shown with a selection of clear calls. The call rests on the fitted dose curve; in most records, active means well fitted activation curve with a large enough effect in the signal ratio, with a control signal flat (not every such curve was filed as active); inconclusive means small, poorly fitted or top-dose-only effect, or effect the other way, or a change in a side signal; inactive means flat fitted curve, though single readings scatter; the % refers to the signal ratio. Potencies beside an inconclusive call are fits to weak or partial responses and may not hold up.",
  "data": [
    {"assay": "Cell signaling CRE-BLA (Fsk stim); further: potency means the concentration at half of the fitted maximal effect; tags describe the fitted curve by direction and shape; on activity change, negative = inhibition: % of control where 0% means no effect", "details": "CHO CRE-bla reporter (cAMP response element driving beta-lactamase), forskolin EC10, beta-lactamase ratio; activity change, negative = inhibition: at 38.2 µM (top of the series) unless noted", "how_it_was_run": "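Beta-lactamase reporter under a cAMP responsive element in CHO cells; compounds tested in titration series against EC10 NKH 477, 3 h at 37 °C. Read-out: CCF4 FRET ratio 460nm/530nm (excitation 405nm) giving %Activity, fitted to AC50.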", "values": [
      {"molecule": "COC(=O)C1=C(Cn2cnc3ccccc32)NC(=O)NC1c1cc(C)ccc1C", "note": "(centres undefined)", "activity change, negative = inhibition": "inconclusive: -24.9%"},
      {"molecule": "CCCCn1c(Oc2ccc(C(=O)OC)cc2)nc2c1c(=O)n(C)c(=O)n2C", "activity change, negative = inhibition": "inconclusive: 18.2% [at 7.6 µM]"},
      {"molecule": "CCOC(=O)C(CC)Sc1nc2c(c(=O)[nH]c(=O)n2C)n1C/C=C(/C)Cl", "note": "(centres undefined)", "Potency": "inconclusive: 12.6 µM [rising, single point]"},
      {"molecule": "O=C(c1n[nH]c2ccccc12)N1CCN(S(=O)(=O)c2ccc3ccccc3c2)CC1", "activity change, negative = inhibition": "inconclusive: -4.2%"},
      {"molecule": "CCOC(=O)c1oc2ccccc2c1NC(=O)COC", "Potency": "inconclusive: 12.6 µM [rising, partial curve]"},
      {"molecule": "CC(Sc1nc(N)cc(=O)[nH]1)C(=O)NC1CCCCC1", "note": "(centres undefined)", "activity change, negative = inhibition": "inactive"},
      {"molecule": "CC(C)OCC(O)CSc1ccccn1", "note": "(centres undefined)", "Potency": "inconclusive: 0.0251 µM [rising, full curve, poor fit]"},
      {"molecule": "Cc1ccc(N2CCN(c3ccc(C)cc3)C(CC(=O)O)C2=O)cc1", "note": "(centres undefined)", "Potency": "inconclusive: 25.1 µM [rising, single point]"},
      {"molecule": "COc1ccc(OC)c(S(=O)(=O)Nc2cccc(C(C)=O)c2)c1", "activity change, negative = inhibition": "inconclusive: -2.55%"},
      {"molecule": "O=C(Cc1cccs1)NCc1cn2ccccc2n1", "activity change, negative = inhibition": "inactive"},
      {"molecule": "CCOC(=O)C1=C(C)OC(N)=C(C(=O)OCC)C1c1cccnc1", "note": "(centres undefined)", "activity change, negative = inhibition": "inconclusive: 7%"},
      {"molecule": "COC(=O)C1=C(C)NC2=C(C(=O)CCC2)C1c1cccc(C)n1", "note": "(centres undefined)", "activity change, negative = inhibition": "inconclusive: 17.4%"},
      {"molecule": "Cc1ccc(/C=N/n2c(C)nnc2C)s1", "activity change, negative = inhibition": "inconclusive: 17.1%"},
      {"molecule": "COC(=O)N1CCC2(CCCN(C(c3ccccc3)c3ccccc3)C2)CC1", "activity change, negative = inhibition": "inconclusive: 19.4%"},
      {"molecule": "CC(C)c1ccc2oc(-c3cc(N)ccc3O)nc2c1", "activity change, negative = inhibition": "inconclusive: 20.3% [at 7.6 µM]"},
      {"molecule": "CC(=O)NCCNc1ncnc2ccc(-c3ccc4c(c3)OCO4)cc12", "Potency": "inconclusive: 12.6 µM [rising, partial curve]"},
      {"molecule": "Cc1ccc(CCCC(=O)O)cc1C", "activity change, negative = inhibition": "inactive: -0.884% [at 7.6 µM]"},
      {"molecule": "CC(=O)c1cccc(NC(=O)c2c(F)c(F)c(F)c(F)c2F)c1", "Potency": "inconclusive: 1.58 µM [falling, partial curve, poor fit]"},
      {"molecule": "CCOC(=O)c1ccccc1NC(=O)Cn1cnc2c(nnn2-c2ccc(C)cc2)c1=O", "activity change, negative = inhibition": "inactive"},
      {"molecule": "O=C(Nc1cccc(-c2cn3cccnc3n2)c1)c1ccc2c(c1)OCO2", "Potency": "inconclusive: 12.6 µM [rising, single point]"},
      {"molecule": "O=C(NCC(c1cccnc1)N1CCOCC1)c1ccc2c(c1)OCO2", "note": "(centres undefined)", "activity change, negative = inhibition": "inactive"},
      {"molecule": "CSc1ccc(S(=O)(=O)N2CCCC2)cc1", "activity change, negative = inhibition": "inactive"},
      {"molecule": "CCOC(=O)COn1c(=O)c(=O)n(O)c2ccccc21", "Potency": "inconclusive: 0.794 µM [falling, full curve]"},
      {"molecule": "CCOC(=O)N1CCC(n2c(SCC(=O)Nc3ccccc3OC)nc3ccccc3c2=O)CC1", "Potency": "inconclusive: 10 µM [rising, single point]"},
      {"molecule": "CC1(C)Cc2c(c(N3CCOCC3)nc3sc(-c4ccc(C(=O)O)o4)c(N)c23)CO1", "Potency": "inconclusive: 12.6 µM [rising, single point]"},
      {"molecule": "[Cl][In]([Cl])[Cl]", "activity change, negative = inhibition": "inactive"},
      {"molecule": "COc1cc2c(cc1OC)C(=O)N(C)CC2", "Potency": "active: 15.8 µM"},
      {"molecule": "N#CC(C#N)=CNCCN1CCN(C=C(C#N)C#N)CC1", "activity change, negative = inhibition": "inactive: 2.98% [at 7.6 µM]"},
      {"molecule": "Cc1ccc(C)c(Cn2cnc3c(cnn3C(C)(C)C)c2=O)c1", "Potency": "inconclusive: 12.6 µM [rising, single point]"},
      {"molecule": "CN1CCN(S(=O)(=O)c2cccc(C(=O)N(c3ccccn3)C3CCCCC3)c2)CC1", "activity change, negative = inhibition": "inconclusive: -8.93%"},
      {"molecule": "CCOC(=O)C1CCCN(C(=O)c2cc3c(C)nc4ccccc4c3o2)C1", "note": "(centres undefined)", "Potency": "inconclusive: 5.01 µM [rising, partial curve]"},
      {"molecule": "CCOC(=O)C1CCN(c2ncnc3c2[nH]c2cccc(OC)c23)CC1", "Potency": "inconclusive: 7.94 µM [rising, partial curve]"},
      {"molecule": "CN(C)c1nc(Oc2ccc(/C=N/O)cc2)nc(N(C)C)n1", "Potency": "inconclusive: 7.94 µM [rising, partial curve]"},
      {"molecule": "Oc1c(CN2CCOCC2)cc(COCc2ccccc2)c2cccnc12", "activity change, negative = inhibition": "inconclusive: 17%"},
      {"molecule": "NC[C@@H]1O[C@@H](O[C@H]2[C@H](O)[C@H](O[C@@H]3O[C@H](CO)[C@@H](O)[C@H](N)[C@@H]3O)[C@@H](N)C[C@H]2N)[C@H](N)C[C@@H]1O", "activity change, negative = inhibition": "inactive"},
      {"molecule": "N/N=C1/c2ccccc2N[C@H]1OC(=O)Nc1ccccc1", "Potency": "inconclusive: 3.16 µM [rising, single point]"},
      {"molecule": "Cc1ccc(S(=O)(=O)O[C@H]2C[C@@H](C(C)(C)C)CC[C@@H]2c2ccccc2)cc1", "activity change, negative = inhibition": "inconclusive: 27.2% [at 7.6 µM]"},
      {"molecule": "Cc1cccc2nc(CSCc3ccco3)cn12", "activity change, negative = inhibition": "inactive"},
      {"molecule": "Cc1csc(NC(=O)c2cc3c(s2)-c2ccccc2OC3)n1", "Potency": "inconclusive: 12.6 µM [rising, partial curve]"},
      {"molecule": "COc1ccc(CCn2c(-c3ccco3)nc3nc4ccccc4nc32)cc1", "Potency": "inconclusive: 3.16 µM [rising, partial curve]"},
      {"molecule": "Cc1cc(C)n2c(SCc3cccs3)nnc2n1", "Potency": "inconclusive: 10 µM [rising, single point]"},
      {"molecule": "CCn1c(=O)cc(SCC(=O)N2CCN(C(=O)c3ccco3)CC2)c2ccccc21", "Potency": "inconclusive: 10 µM [rising, partial curve]"},
      {"molecule": "COc1ccc(-c2nn3c(-c4ccccc4)nnc3s2)cc1OC", "Potency": "active: 3.16 µM"},
      {"molecule": "CN1CCN(c2ccc(NC(=O)c3cccc(OCc4ccccc4)c3)cc2)CC1", "activity change, negative = inhibition": "inactive"},
      {"molecule": "COc1ccc(C)cc1NC(=O)CSc1nnc(-c2ccco2)n1Cc1ccco1", "activity change, negative = inhibition": "inconclusive: 27.3%"},
      {"molecule": "O=C(CN1CCOCC1)Nc1ccc(Oc2ccc(NC(=O)CN3CCOCC3)cc2)cc1", "Potency": "inconclusive: 12.6 µM [rising, partial curve]"},
      {"molecule": "Clc1ccc(C2=Nn3c(nnc3-c3n[nH]c4c3CCC4)SC2)cc1Cl", "Potency": "active: 1 µM"},
      {"molecule": "CCOc1ccc2c(c1)c1nnc(SCC(=O)N3CCC(C)CC3)nc1n2C", "Potency": "inconclusive: 2.51 µM [rising, partial curve]"},
      {"molecule": "CSc1nsc(SCC(=O)NC2CCCCC2)n1", "activity change, negative = inhibition": "inconclusive: -11%"}
    ]}
  ]
}
